The whole screen tested about 310,000 compounds, of which about 14,000 (4.5%) showed an effect of 50% or more. The effect is printed as a negative number. The list shows a part of the results.
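Further: peak tail current of the secondary pulse compared with the same well before compound.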

In the assay the target is human ether-à-go-go-related gene (hERG) potassium channel (human, UniProt Q12809). The assay is described as follows: primary screen, population patch clamp on CHO cells stably expressing hERG.
Chain of human ether-à-go-go-related gene (hERG) potassium channel (Q12809 whole entry, looked up): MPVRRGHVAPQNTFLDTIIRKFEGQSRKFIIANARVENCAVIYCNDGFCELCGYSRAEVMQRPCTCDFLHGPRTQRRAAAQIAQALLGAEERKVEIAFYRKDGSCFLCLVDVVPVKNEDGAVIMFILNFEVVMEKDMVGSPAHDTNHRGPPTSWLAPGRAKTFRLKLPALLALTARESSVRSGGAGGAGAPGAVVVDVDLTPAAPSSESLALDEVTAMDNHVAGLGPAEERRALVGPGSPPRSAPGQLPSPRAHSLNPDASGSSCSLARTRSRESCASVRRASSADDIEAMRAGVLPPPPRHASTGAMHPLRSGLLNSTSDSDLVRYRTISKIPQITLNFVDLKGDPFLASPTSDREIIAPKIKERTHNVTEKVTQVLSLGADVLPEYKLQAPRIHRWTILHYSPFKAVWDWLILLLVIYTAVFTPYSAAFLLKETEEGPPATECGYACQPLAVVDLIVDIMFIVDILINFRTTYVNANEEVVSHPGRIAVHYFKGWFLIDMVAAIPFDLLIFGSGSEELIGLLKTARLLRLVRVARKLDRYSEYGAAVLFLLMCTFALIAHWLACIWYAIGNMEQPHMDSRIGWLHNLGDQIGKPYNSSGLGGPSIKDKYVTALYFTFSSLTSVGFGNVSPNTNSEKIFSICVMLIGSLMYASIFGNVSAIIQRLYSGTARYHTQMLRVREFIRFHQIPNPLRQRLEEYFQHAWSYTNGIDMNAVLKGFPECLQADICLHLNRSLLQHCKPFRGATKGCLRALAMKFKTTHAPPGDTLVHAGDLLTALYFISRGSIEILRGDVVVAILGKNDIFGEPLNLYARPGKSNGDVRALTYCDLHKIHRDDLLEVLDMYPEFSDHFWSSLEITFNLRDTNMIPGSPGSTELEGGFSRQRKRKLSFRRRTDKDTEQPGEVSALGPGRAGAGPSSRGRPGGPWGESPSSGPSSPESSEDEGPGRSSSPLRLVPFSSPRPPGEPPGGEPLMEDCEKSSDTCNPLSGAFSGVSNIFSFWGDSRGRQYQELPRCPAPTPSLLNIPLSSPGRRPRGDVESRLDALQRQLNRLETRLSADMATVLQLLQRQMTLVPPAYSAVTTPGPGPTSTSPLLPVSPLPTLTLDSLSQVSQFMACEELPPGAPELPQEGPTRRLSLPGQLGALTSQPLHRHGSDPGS
`C[C@H]1C=CC(=O)O[C@H]1c1ccccc1`: the “hERG current change (%, negative = inhibition) at 10uM” value came to 11.5%.

With `COc1ccc(Cn2c(CCC(=O)Nc3ccc(C)c(C)c3)nc3cccnc32)cc1`, the “hERG current change (%, negative = inhibition) at 10uM” value was 3.94%. As for `O=C(CNCc1ccco1)Nc1ccc(Oc2ccccc2)cc1.O=C(O)C(=O)O`, the “hERG current change (%, negative = inhibition) at 10uM” value is recorded as -21.3%.

Take `Cc1cccc(NS(=O)(=O)c2ccc(-n3cccn3)cc2)c1C`: the “hERG current change (%, negative = inhibition) at 10uM” value was found to be 0.598%. In the case of `Cc1ccc(-n2c(NN)nc3ccccc3c2=O)c(C)c1`, the “hERG current change (%, negative = inhibition) at 10uM” value is recorded as 7.91%.

In the case of `COc1cc2oc3ccccc3c2cc1N(CC(=O)N1CCCCC1)S(=O)(=O)c1ccc(C)cc1`, the “hERG current change (%, negative = inhibition) at 10uM” value was found to be 7.19%. `CCCCn1c2nc3ccccc3nc2c2c(=O)n(CCC(C)C)cnc21`: the “hERG current change (%, negative = inhibition) at 10uM” value is on record as 1.94%. Take `CCOC(=O)C1C(=O)C=C(c2ccc(Br)cc2)CC1c1ccco1` (stereo not drawn): the “hERG current change (%, negative = inhibition) at 10uM” value is -23.2%.

As to `O=C(CN1CCOCC1)Nc1c(Cl)cc(Cl)cc1Cl`, the “hERG current change (%, negative = inhibition) at 10uM” value is -2.17%. As to `Cc1nc([N+](=O)[O-])c(C(=O)OCc2ccccc2F)n1C`, the “hERG current change (%, negative = inhibition) at 10uM” value is recorded as -3.69%. `Cc1ccc(NC(=O)CCC(=O)n2nc(C)cc2C)c(C)c1`: the “hERG current change (%, negative = inhibition) at 10uM” value was -10%.

On to `CCN(CC(=O)Nc1ccc(NC(C)=O)cc1)CC(=O)Nc1ccc(Cl)c(Cl)c1.O=C(O)C(=O)O`, for which the “hERG current change (%, negative = inhibition) at 10uM” value stood at 19%. Under `COc1ccc(/C=N/NC(=O)CCCCCNC(=O)c2ccccc2)cc1` stands -23.9%; under `O=[N+]([O-])c1ccc(C2NS(=O)(=O)N=C3CCCCCN32)cc1` (stereo not drawn), 0.721%. For the compound `COC(=O)c1ccc(N2C(=O)C3CC(C)=C(C)CC3C2=O)cc1` (stereo not drawn), the “hERG current change (%, negative = inhibition) at 10uM” value came to 3.73%.

Take `CC(C)(C)OC(=O)N1CCC[C@H]1c1nnc(SCC(=O)Nc2cccc(Cl)c2)o1`: the “hERG current change (%, negative = inhibition) at 10uM” value was -19.5%. Consider `COc1ccc(/C=N/NC(=O)C2CC2)c(OC)c1OC`, for which the “hERG current change (%, negative = inhibition) at 10uM” value stood at 12.9%. On to `CCCCOC(=O)COc1cc(C)cc2oc(=O)c3c(c12)CCC3`, for which the “hERG current change (%, negative = inhibition) at 10uM” value was -1.09%. Take `O=c1oc2ccccc2cc1-c1nc2c(s1)CCc1ccccc1-2`: the “hERG current change (%, negative = inhibition) at 10uM” value is -8.72%. For `CCC(C)n1c(/C=C/c2ccccc2)nc2ccccc21` (stereo not drawn), the “hERG current change (%, negative = inhibition) at 10uM” value was -31.2%. In the case of `Cn1cc(S(=O)(=O)Cc2ccc(F)cc2)c2ccccc21`, the “hERG current change (%, negative = inhibition) at 10uM” value amounted to 12.4%.

In the case of `CN(C1CCCCC1)S(=O)(=O)c1cccc(C(=O)Nc2ccccn2)c1`, the “hERG current change (%, negative = inhibition) at 10uM” value is -53.7%.

As for `Cc1ccc(-c2nc(CSCC(=O)N3CCN(C(=O)c4ccco4)CC3)c(C)o2)cc1`, the “hERG current change (%, negative = inhibition) at 10uM” value was -32.7%. With `Cc1ccc(C(=O)N[C@@H](Cc2ccccc2)C(=O)N2CCC3(CC2)NCCc2[nH]cnc23)cc1C` the figure was 7.87%.
